Here are results for 88 compounds from PMC4336329 (PLoS ONE, 2015).

About 2,200 (0.71%) of roughly 310,000 compounds showed an effect of 50% or more. Effects have a minus sign here. This is one part of the list.

In this experiment the target is human ether-à-go-go-related gene (hERG) potassium channel (human, UniProt Q12809). Put plainly: primary screen, population patch clamp on CHO cells stably expressing hERG.
human ether-à-go-go-related gene (hERG) potassium channel, sequence (Q12809 whole entry, looked up): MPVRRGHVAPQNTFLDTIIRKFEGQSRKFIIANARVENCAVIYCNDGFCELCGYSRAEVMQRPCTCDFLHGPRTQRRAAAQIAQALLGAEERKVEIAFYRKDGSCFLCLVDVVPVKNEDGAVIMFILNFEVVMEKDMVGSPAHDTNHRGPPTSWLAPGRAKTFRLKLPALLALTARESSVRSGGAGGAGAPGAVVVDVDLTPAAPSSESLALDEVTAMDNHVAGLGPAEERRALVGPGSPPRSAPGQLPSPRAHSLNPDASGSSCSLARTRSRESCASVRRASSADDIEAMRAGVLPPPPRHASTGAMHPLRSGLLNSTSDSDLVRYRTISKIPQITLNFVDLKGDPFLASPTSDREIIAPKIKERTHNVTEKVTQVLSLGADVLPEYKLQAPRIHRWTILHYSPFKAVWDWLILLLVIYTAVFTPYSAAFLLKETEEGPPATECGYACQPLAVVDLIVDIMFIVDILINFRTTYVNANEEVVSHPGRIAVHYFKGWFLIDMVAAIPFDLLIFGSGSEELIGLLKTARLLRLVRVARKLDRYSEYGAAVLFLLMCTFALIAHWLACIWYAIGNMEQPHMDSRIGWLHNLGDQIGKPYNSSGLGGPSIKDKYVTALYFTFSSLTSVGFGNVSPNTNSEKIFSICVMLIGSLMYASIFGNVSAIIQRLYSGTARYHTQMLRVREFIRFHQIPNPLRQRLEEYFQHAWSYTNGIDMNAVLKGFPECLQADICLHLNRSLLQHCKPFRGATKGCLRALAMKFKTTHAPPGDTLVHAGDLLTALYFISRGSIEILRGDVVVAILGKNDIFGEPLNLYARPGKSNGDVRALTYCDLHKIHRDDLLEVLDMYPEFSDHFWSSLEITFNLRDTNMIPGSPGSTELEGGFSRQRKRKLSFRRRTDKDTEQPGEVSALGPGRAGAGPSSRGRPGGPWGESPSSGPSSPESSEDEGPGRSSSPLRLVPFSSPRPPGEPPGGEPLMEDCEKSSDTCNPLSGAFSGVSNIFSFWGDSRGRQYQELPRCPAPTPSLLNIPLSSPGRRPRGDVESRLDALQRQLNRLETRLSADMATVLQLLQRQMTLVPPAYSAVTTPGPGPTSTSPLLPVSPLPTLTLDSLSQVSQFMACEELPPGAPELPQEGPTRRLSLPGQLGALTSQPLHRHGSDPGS
Turning to `CN(CC(=O)Nc1ccccc1Cl)C(=O)c1cccc(-n2cccc2)c1`, the “hERG current change (%, negative = inhibition) at 1uM” value is reported as -18%.
As to `Cc1ccc(S(=O)(=O)N2CCN(C(=O)c3ccccc3)CC2)c(C)c1NS(C)(=O)=O`, the “hERG current change (%, negative = inhibition) at 1uM” value was 13.1%.
In the case of `Cc1ccc(-c2cn3cccnc3n2)cc1NC(=O)c1cccs1`, the “hERG current change (%, negative = inhibition) at 1uM” value is reported as 10.5%.
Consider `CCCSc1nc2c(c(=O)n(C)c(=O)n2C)n1C`, for which the “hERG current change (%, negative = inhibition) at 1uM” value is reported as 11%.
As to `CC1(C)CCc2cc(CN3CCN(c4ccccn4)CC3)ccc2O1`, the “hERG current change (%, negative = inhibition) at 1uM” value turned out to be 13.4%.
As to `COC(=O)c1ccc(C(C(=O)NCc2ccccc2)N(Cc2cccs2)C(=O)c2cnccn2)cc1` (stereo not shown), the “hERG current change (%, negative = inhibition) at 1uM” value was -8%.
Turning to `C=CCNC(=S)NCC`, the “hERG current change (%, negative = inhibition) at 1uM” value is listed as 17.2%.
`COC(=O)c1ccc(OCC(=O)Nc2nn(-c3ccccc3)nc2C(N)=O)cc1`: the “hERG current change (%, negative = inhibition) at 1uM” value is listed as -10.7%.
As for `O=C(NC1CCCCC1)Nn1c(-c2ccccc2)nc2ccccc2c1=O`, the “hERG current change (%, negative = inhibition) at 1uM” value came out at 11.3%.
Regarding `COC(=O)c1ccc(C(=O)OC)c(NC(=O)CN2CCN(c3ccccc3)CC2)c1`, the “hERG current change (%, negative = inhibition) at 1uM” value was determined as 3.9%.
`S=C(NN=C(C1CC1)C1CC1)Nc1ccccc1`: the “hERG current change (%, negative = inhibition) at 1uM” value is -8.05%.
`COc1ccc(-c2c(C)oc3ccc(C)cc23)cc1`: the “hERG current change (%, negative = inhibition) at 1uM” value is 8.91%.
To `CCN(C(=O)c1cnc(OC)cc1C(F)(F)F)c1ccc(Cl)cc1Cl` belongs 11.9%.
Consider `CC1=C(C(=O)OC(C)C)C2(O)C(=O)c3ccccc3C2(O)N1` (stereo not shown), for which the “hERG current change (%, negative = inhibition) at 1uM” value was found to be 14.3%.
In the case of `Clc1cccc(C2Nc3cccc4cccc(c34)N2)c1Cl`, the “hERG current change (%, negative = inhibition) at 1uM” value turned out to be 8.98%.
With `O=C(c1ccccc1)c1cn(CC(=O)N2CCCc3ccccc32)c2ccccc12`, the “hERG current change (%, negative = inhibition) at 1uM” value worked out at 8.76%.
As for `COc1ccc(N2C(=O)CC(n3c(CCCCO)nc4ccccc43)C2=O)cc1` (stereo not shown), the “hERG current change (%, negative = inhibition) at 1uM” value came to 13.7%.
Consider `Cc1ccc(OCCn2c(=O)cnc3ccccc32)cc1`, for which the “hERG current change (%, negative = inhibition) at 1uM” value came to 2.58%.
To `Cc1ccc(C(=O)c2ccccc2C(=O)OCC(=O)Nc2cccc([N+](=O)[O-])c2)cc1` belongs -8.09%; to `COCCN(C(=S)Nc1ccc(C)cc1)C(C)c1ccco1` (stereo not shown), 2.27%; to `Cc1ccc(N(CC(=O)Nc2ccccc2-c2ccccc2)S(=O)(=O)c2ccccc2)cc1`, 13.3%.
Regarding `CCCNC(=O)NCc1ccc(N2CCCC2=O)cc1`, the “hERG current change (%, negative = inhibition) at 1uM” value was 9.05%.
On to `CCCNC(=O)C(Cc1ccccc1F)NC(=O)c1ccc(C#N)cc1` (stereo not shown), for which the “hERG current change (%, negative = inhibition) at 1uM” value came out at 8.98%.
`COc1ccc(C(=O)NCCNc2nc3ccc(C)cc3cc2C#N)cc1OC`: the “hERG current change (%, negative = inhibition) at 1uM” value worked out at 4.63%.
As to `CCCCn1c(SCC(=O)N2CCC(C)CC2)nc2ccsc2c1=O`, the “hERG current change (%, negative = inhibition) at 1uM” value is -19.1%.
`C=C(Br)Cn1cnc2ccccc21`: the “hERG current change (%, negative = inhibition) at 1uM” value is given as 5.28%.
Turning to `COc1ccc2cc(CN(Cc3cccnc3)S(=O)(=O)c3ccccc3)c(=O)[nH]c2c1`, the “hERG current change (%, negative = inhibition) at 1uM” value is recorded as -16.2%.
In the case of `Cc1ccc(/C=N/NC(=O)CC(=O)NCc2cccnc2)cc1`, the “hERG current change (%, negative = inhibition) at 1uM” value is on record as 9.29%.
Turning to `CCCCNCc1cc(Br)c(OCC(=O)NCc2ccccc2)c(OC)c1.Cl`, the “hERG current change (%, negative = inhibition) at 1uM” value is listed as -9.88%.
As to `COC(=O)C1=C[C@@H](C(=O)OC)[C@@H]2C3=C(C(=O)[C@@]2(C)NC(=O)c2ccccc2)[C@H](C)n2c(=O)n(C)c(=O)n2[C@@H]3C1`, the “hERG current change (%, negative = inhibition) at 1uM” value is on record as 10.7%.
For `COc1ccc(CN=Cc2c(C(=O)O)[nH]c3ccccc23)cc1`, the “hERG current change (%, negative = inhibition) at 1uM” value was determined as 6.32%.
For the compound `Cc1c(NC(=O)C(C)OC(=O)C23CC4CC(CC(Br)(C4)C2)C3)c(=O)n(-c2ccccc2)n1C` (stereo not shown), the “hERG current change (%, negative = inhibition) at 1uM” value is given as -7.53%.
Take `Cc1sc(NC(=O)C2C3CCC(O3)C2C(=O)O)c(C(=O)OC(C)C)c1-c1ccc(Cl)cc1` (stereo not shown): the “hERG current change (%, negative = inhibition) at 1uM” value turned out to be 14.4%.
Then `COc1ccc(-c2cc(C(=O)NCc3ccccc3)no2)cc1OC`, with -4.55%; and `COc1ccc(S(=O)(=O)N2CCC(C(=O)NC3CCCCC3C)CC2)cc1` (stereo not shown), with 7.41%; and `COc1nc(Nc2cccc(F)c2)nc(OC)n1`, with 4.66%.
To `COc1cc(SC)ccc1C(=O)NCc1ccccc1` belongs 14.3%; to `CCOc1ccc(C(=O)CSCCC(=O)O)cc1`, 3.67%.
To `CCN(CC)S(=O)(=O)c1ccc(C(=O)Nc2ncn(Cc3ccccc3)n2)cc1` belongs 8.32%; to `COc1cccc(NC(=O)C(=O)N2CCOCC2)c1`, 13%.
As to `O=C(CSc1nnc(-c2cccnc2)n1-c1ccccc1)NCc1ccc2c(c1)OCO2`, the “hERG current change (%, negative = inhibition) at 1uM” value is reported as -47.9%.
Take `CCOC(=O)CSc1nc(NC#N)nc(N(CC)CC)n1`: the “hERG current change (%, negative = inhibition) at 1uM” value came out at 14.4%.
For `CC(C)OC(=O)c1c(NC(=O)c2cnn3c2NC(c2ccccc2)CC3C(F)F)sc2c1CCCC2` (stereo not shown), the “hERG current change (%, negative = inhibition) at 1uM” value was 11.8%.
To `CC(C)(O)C(=O)Nc1ccc([N+](=O)[O-])c(C(F)(F)F)c1` belongs 4.18%.
On to `O=C1NC(=S)N(c2ccccc2F)C(=O)/C1=C\c1cccs1`, for which the “hERG current change (%, negative = inhibition) at 1uM” value turned out to be 11.3%.
For `O=C(OCc1cc2ccccc2[nH]c1=O)c1ccncc1`, the “hERG current change (%, negative = inhibition) at 1uM” value is 9.42%.
In the case of `O=C(c1ccc(S(=O)(=O)NCC2CCCO2)cc1)N1CCN(c2ccccc2F)CC1` (stereo not shown), the “hERG current change (%, negative = inhibition) at 1uM” value stood at 2.29%.
For `COc1ccc(CNC(=O)CCN2C(=S)NC(C)(C)CC2C)cc1` (stereo not shown), the “hERG current change (%, negative = inhibition) at 1uM” value is listed as 9.79%.
Consider `CCCCCn1c(=N)n(CC(O)COc2ccccc2OC)c2ccccc21.Cl` (stereo not shown), for which the “hERG current change (%, negative = inhibition) at 1uM” value is -86.3%.
`Nc1nnnn1/N=C/c1ccccc1OCc1ccc(Cl)cc1`: the “hERG current change (%, negative = inhibition) at 1uM” value is on record as -0.867%.
To `CCOC(=O)C1CCN(CCCSc2ccccc2)CC1.Cl` belongs -22.2%; to `COc1cccc(NC(=O)CN(C)C(=O)c2cc(S(=O)(=O)NCc3ccccc3)ccc2C)c1`, -15.2%; to `OCCSc1nc(-c2ccccc2)nc2ccc(F)cc12`, 10.8%.
Then `Cc1ccc(OC(=O)c2ccc(C)c(C)c2)cn1`, with 8.78%.
Then `Cc1nc2ccc(NC(=O)c3ccc(Cl)c(NC(=O)c4cccs4)c3)cc2s1`, with 13.2%; and `Cc1cccc(C)c1NC(=O)c1cccnc1`, with 14.9%.
With `COc1nc(-c2ccccc2)ccc1-c1noc(COc2ccccc2)n1`, the “hERG current change (%, negative = inhibition) at 1uM” value stood at 17.7%.
To `CC(C)NC(=O)C1CCN(C2CCN(C(=O)c3cc4c(s3)CCCCC4)CC2)CC1` belongs 6.33%; to `O=C(COc1ccc(Cl)cc1)NCc1nnc(SCC(=O)N2CCCCC2)o1`, -3.7%.
In the case of `Cc1nc2c(-c3ccccc3)c(C)nn2c(C)c1CC(=O)O`, the “hERG current change (%, negative = inhibition) at 1uM” value is recorded as 7.18%.
Then `Cc1cccc2cc(CN(Cc3ccco3)C(=O)c3ccco3)c(=O)[nH]c12`, with 3.76%; and `COc1cccc(OCCOc2c(OC)cccc2OC)c1`, with 17%.
Take `Cc1csc(NC(C)c2nc3cc(Cl)c(N4CCCCC4)cc3n2CCOCCO)n1` (stereo not shown): the “hERG current change (%, negative = inhibition) at 1uM” value is listed as 2.53%.
In the case of `CC(C)(C#CC(O)(c1ccccc1)c1ccccc1)N1CCCC1.Cl`, the “hERG current change (%, negative = inhibition) at 1uM” value is given as -13.9%.
As for `CCN(CC)S(=O)(=O)c1ccc(Cl)c(C(=O)NC(C)C(c2cccs2)N2CCCC2)c1` (stereo not shown), the “hERG current change (%, negative = inhibition) at 1uM” value was found to be 2.12%.
Turning to `COc1ccc(C(=O)C2CCCN(C(=O)c3cc4nc(C)cc(C)n4n3)C2)cc1F` (stereo not shown), the “hERG current change (%, negative = inhibition) at 1uM” value came out at 3.7%.
As to `COc1ccc(S(=O)(=O)NC2(C(F)(F)F)N=C(c3ccccc3)NC2=O)cc1` (stereo not shown), the “hERG current change (%, negative = inhibition) at 1uM” value is recorded as 5.44%.
Take `CC(C)COC(=O)C(N)C(C(=O)OCC(C)C)c1ccccc1.Cl` (stereo not shown): the “hERG current change (%, negative = inhibition) at 1uM” value is listed as 11.2%.
Then `CC(C)NC(=O)c1cc2c(-c3ccc(Cl)cc3)nn(C)c2s1`, with 6.15%; and `COc1cccc(-c2ncc3ccccc3c2COC(=O)CCC(=O)O)c1`, with 11.6%; and `O=C(COC(=O)c1cccnc1Cl)Nc1cc(S(=O)(=O)N2CCCCC2)ccc1Cl`, with 1.71%.
Consider `CC1CC(=O)N(c2ccc(C(C)C)cc2)C(=O)C1`, for which the “hERG current change (%, negative = inhibition) at 1uM” value is 12.4%.
`CN(C(=O)CSc1nnc(C2CC2)n1-c1ccccc1)C1CCS(=O)(=O)C1` (stereo not shown): the “hERG current change (%, negative = inhibition) at 1uM” value turned out to be 4.71%.
For the compound `COc1cccc(CC(=O)Nc2sc3c(c2C(N)=O)CCCC3)c1`, the “hERG current change (%, negative = inhibition) at 1uM” value worked out at 5.42%.
With `CCOc1cc(S(=O)(=O)N2CCC(c3nc4ccccc4s3)CC2)c(OCC)cc1S(=O)(=O)N1CCCCC1`, the “hERG current change (%, negative = inhibition) at 1uM” value was determined as 14%.
Take `C=CCn1c(-c2ccco2)n[nH]c1=S`: the “hERG current change (%, negative = inhibition) at 1uM” value was determined as 2.81%.
Consider `O=C(NCc1ccccc1Cl)c1cc2ccccc2oc1=O`, for which the “hERG current change (%, negative = inhibition) at 1uM” value is given as 10.2%.
For `Cc1cccc(C)c1NC(=O)Nc1ccc2c(c1)OCO2`, the “hERG current change (%, negative = inhibition) at 1uM” value worked out at 1.95%.
To `Cc1ccc(S(=O)(=O)NCCCNc2ccc([N+](=O)[O-])cc2)cc1` belongs -8.2%.
For the compound `CC(Sc1ccccc1)C(=O)NNC(=O)c1csc(N2CCOCC2)n1` (stereo not shown), the “hERG current change (%, negative = inhibition) at 1uM” value came to 9.42%.
Regarding `COc1ccc(COC(=O)NC(C(=O)O)c2ccccc2)cc1` (stereo not shown), the “hERG current change (%, negative = inhibition) at 1uM” value is 5.57%.
`CC(C)[C@H](NC(=O)c1ccco1)C(=O)OCC(=O)Nc1ccc(Cl)c(S(=O)(=O)N(C)C)c1`: the “hERG current change (%, negative = inhibition) at 1uM” value is listed as 7.7%.
For `COc1ccc2nc(NC(=O)c3ccc(F)cc3)sc2c1`, the “hERG current change (%, negative = inhibition) at 1uM” value came to 18.4%.
In the case of `CC(OC(=O)CCN=C1NS(=O)(=O)c2ccccc21)C(=O)NC1CCCCC1C` (stereo not shown), the “hERG current change (%, negative = inhibition) at 1uM” value is -6.14%.
In the case of `O=C(c1ccccc1)n1ccc(-c2cnc(-c3ccccc3)s2)n1`, the “hERG current change (%, negative = inhibition) at 1uM” value was found to be 12.2%.
For `COc1cccc(NC(=O)C(C)SCc2ccccc2)c1` (stereo not shown), the “hERG current change (%, negative = inhibition) at 1uM” value turned out to be 4.11%.
On to `COC(=O)C1=C(c2ccc(F)cc2F)C[C@@H]2CC[C@H]1N2C(=O)NCc1ccc(F)cc1`, for which the “hERG current change (%, negative = inhibition) at 1uM” value came to 7.56%.
Turning to `CCCCCCn1c(CN2CCN(C(=O)OCC)CC2)nc2c1c(=O)n(C)c(=O)n2C`, the “hERG current change (%, negative = inhibition) at 1uM” value is -13.7%.
